Data from article PMC12820563, “FoxP3 forms a head-to-head dimer in vivo and stabilizes its multimerization on adjacent microsatellites”.
The list shows a part of the results.

molecular target: T1, MBP-FoxP1dN (Mus musculus, UniProt P58462 326-579); assay: PD-seq (MBP pull-down with sequencing); 20 mM Tris-HCl pH 7.5, 100 mM NaCl, 1.5 mM MgCl2, 0.4 uM protein, 0.1 uM dsDNA library, 30 min, room temperature, amylose pull-down; high values mean tight binding; settings: protein: recombinant; tags: His6-MBP; chain copies: 2; dsDNA, one strand shown
T1 sequence: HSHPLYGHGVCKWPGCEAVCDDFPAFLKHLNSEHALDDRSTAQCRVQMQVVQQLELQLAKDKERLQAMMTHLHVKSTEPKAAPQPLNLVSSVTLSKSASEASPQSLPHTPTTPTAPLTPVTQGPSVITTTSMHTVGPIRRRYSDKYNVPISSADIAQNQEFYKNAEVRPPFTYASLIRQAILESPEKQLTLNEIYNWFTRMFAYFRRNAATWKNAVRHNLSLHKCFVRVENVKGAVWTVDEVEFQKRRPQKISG
How it was run: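 Binding is the reads-per-million enrichment of pull-down relative to input, pooled across replicates. For this, 0.4 µM His6-MBP-tagged mouse FoxP3 or FoxP1 fragment lacking the N-terminus, made in E. coli, was incubated with 0.1 µM Klenow-filled double-stranded degenerate DNA library for 30 min at room temperature in Tris pH 7.5 buffer with NaCl and MgCl2. Complexes bound to amylose resin were washed three times before proteinase K released the DNA for PCR barcoding and Illumina sequencing.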

Sequence	binding signal
GATGATTGTTCTCCCAGCTGATGAATTCACGGCCTCGAGTAAACAAATTTTCCTAATCTTTCTGTTCAAGCGCCATCTAC	0.832 RPM ratio (pull-down/input)
GATGATTGTTCTCCCAGCTGATGAATTTGTGTGTTCGAGTAAACAAATTTTCCTAATCTTTCTGTTCAAGCGCCATCTAC	1.59 RPM ratio (pull-down/input)
GATGATTGTTCTCCCAGCTGATGAATTGTAATGCTCGAGTAAACAAATTTTCCTAATCTTTCTGTTCAAGCGCCATCTAC	1.15 RPM ratio (pull-down/input)
GATGATTGTTCTCCCAGCTGATGAATTAAAGACCTCGAGTAAACAAATTTTCCTAATCTTTCTGTTCAAGCGCCATCTAC	0.801 RPM ratio (pull-down/input)
GATGATTGTTCTCCCAGCTGATGAATTCTGACACTCGAGTAAACAAATTTTCCTAATCTTTCTGTTCAAGCGCCATCTAC	0.866 RPM ratio (pull-down/input)
GATGATTGTTCTCCCAGCTGATGAATTAGAGACGTCGAGTAAACAAATTTTCCTAATCTTTCTGTTCAAGCGCCATCTAC	0.834 RPM ratio (pull-down/input)
GATGATTGTTCTCCCAGCTGATGAATTATCGTAGTCGAGTAAACAAATTTTCCTAATCTTTCTGTTCAAGCGCCATCTAC	1.03 RPM ratio (pull-down/input)
GATGATTGTTCTCCCAGCTGATGAATTCCCCCGTTCGAGTAAACAAATTTTCCTAATCTTTCTGTTCAAGCGCCATCTAC	0.907 RPM ratio (pull-down/input)
GATGATTGTTCTCCCAGCTGATGAATTTCAGACATCGAGTAAACAAATTTTCCTAATCTTTCTGTTCAAGCGCCATCTAC	0.945 RPM ratio (pull-down/input)
GATGATTGTTCTCCCAGCTGATGAATTCCCCCGCTCGAGTAAACAAATTTTCCTAATCTTTCTGTTCAAGCGCCATCTAC	0.785 RPM ratio (pull-down/input)
GATGATTGTTCTCCCAGCTGATGAATTAGACCCGTCGAGTAAACAAATTTTCCTAATCTTTCTGTTCAAGCGCCATCTAC	0.868 RPM ratio (pull-down/input)
GATGATTGTTCTCCCAGCTGATGAATTCCCATCCTCGAGTAAACAAATTTTCCTAATCTTTCTGTTCAAGCGCCATCTAC	0.815 RPM ratio (pull-down/input)
GATGATTGTTCTCCCAGCTGATGAATTGGCGAGTTCGAGTAAACAAATTTTCCTAATCTTTCTGTTCAAGCGCCATCTAC	0.839 RPM ratio (pull-down/input)
GATGATTGTTCTCCCAGCTGATGAATTTGTGAACTCGAGTAAACAAATTTTCCTAATCTTTCTGTTCAAGCGCCATCTAC	1.09 RPM ratio (pull-down/input)
GATGATTGTTCTCCCAGCTGATGAATTACTAGTCTCGAGTAAACAAATTTTCCTAATCTTTCTGTTCAAGCGCCATCTAC	0.971 RPM ratio (pull-down/input)
GATGATTGTTCTCCCAGCTGATGAATTGTTTTCCTCGAGTAAACAAATTTTCCTAATCTTTCTGTTCAAGCGCCATCTAC	2.36 RPM ratio (pull-down/input)
GATGATTGTTCTCCCAGCTGATGAATTGGACATGTCGAGTAAACAAATTTTCCTAATCTTTCTGTTCAAGCGCCATCTAC	0.895 RPM ratio (pull-down/input)
GATGATTGTTCTCCCAGCTGATGAATTCAGCCCCTCGAGTAAACAAATTTTCCTAATCTTTCTGTTCAAGCGCCATCTAC	0.728 RPM ratio (pull-down/input)
GATGATTGTTCTCCCAGCTGATGAATTACTTTCCTCGAGTAAACAAATTTTCCTAATCTTTCTGTTCAAGCGCCATCTAC	1.02 RPM ratio (pull-down/input)
GATGATTGTTCTCCCAGCTGATGAATTGTGAGACTCGAGTAAACAAATTTTCCTAATCTTTCTGTTCAAGCGCCATCTAC	1.08 RPM ratio (pull-down/input)

Sequence	binding signal
GATGATTGTTCTCCCAGCTGATGAATTGACGGAATCGAGTAAACAAATTTTCCTAATCTTTCTGTTCAAGCGCCATCTAC	1.12 RPM ratio (pull-down/input)
GATGATTGTTCTCCCAGCTGATGAATTGATCAATTCGAGTAAACAAATTTTCCTAATCTTTCTGTTCAAGCGCCATCTAC	1.26 RPM ratio (pull-down/input)
GATGATTGTTCTCCCAGCTGATGAATTCCACACGTCGAGTAAACAAATTTTCCTAATCTTTCTGTTCAAGCGCCATCTAC	0.866 RPM ratio (pull-down/input)
GATGATTGTTCTCCCAGCTGATGAATTGTGCGGGTCGAGTAAACAAATTTTCCTAATCTTTCTGTTCAAGCGCCATCTAC	0.888 RPM ratio (pull-down/input)
GATGATTGTTCTCCCAGCTGATGAATTTCGATGTTCGAGTAAACAAATTTTCCTAATCTTTCTGTTCAAGCGCCATCTAC	0.99 RPM ratio (pull-down/input)
GATGATTGTTCTCCCAGCTGATGAATTGGCGGTGTCGAGTAAACAAATTTTCCTAATCTTTCTGTTCAAGCGCCATCTAC	0.835 RPM ratio (pull-down/input)
GATGATTGTTCTCCCAGCTGATGAATTTGACGGTTCGAGTAAACAAATTTTCCTAATCTTTCTGTTCAAGCGCCATCTAC	0.839 RPM ratio (pull-down/input)
GATGATTGTTCTCCCAGCTGATGAATTATTCATTTCGAGTAAACAAATTTTCCTAATCTTTCTGTTCAAGCGCCATCTAC	1.11 RPM ratio (pull-down/input)
GATGATTGTTCTCCCAGCTGATGAATTCGGCGAGTCGAGTAAACAAATTTTCCTAATCTTTCTGTTCAAGCGCCATCTAC	0.786 RPM ratio (pull-down/input)
GATGATTGTTCTCCCAGCTGATGAATTCGCGGAGTCGAGTAAACAAATTTTCCTAATCTTTCTGTTCAAGCGCCATCTAC	0.761 RPM ratio (pull-down/input)
GATGATTGTTCTCCCAGCTGATGAATTGATGACTTCGAGTAAACAAATTTTCCTAATCTTTCTGTTCAAGCGCCATCTAC	0.994 RPM ratio (pull-down/input)
GATGATTGTTCTCCCAGCTGATGAATTTTCTATATCGAGTAAACAAATTTTCCTAATCTTTCTGTTCAAGCGCCATCTAC	0.994 RPM ratio (pull-down/input)
GATGATTGTTCTCCCAGCTGATGAATTTTTACAGTCGAGTAAACAAATTTTCCTAATCTTTCTGTTCAAGCGCCATCTAC	0.958 RPM ratio (pull-down/input)
GATGATTGTTCTCCCAGCTGATGAATTAGTTCTGTCGAGTAAACAAATTTTCCTAATCTTTCTGTTCAAGCGCCATCTAC	0.873 RPM ratio (pull-down/input)
GATGATTGTTCTCCCAGCTGATGAATTGCGGCCGTCGAGTAAACAAATTTTCCTAATCTTTCTGTTCAAGCGCCATCTAC	0.964 RPM ratio (pull-down/input)
GATGATTGTTCTCCCAGCTGATGAATTAAGCTTTTCGAGTAAACAAATTTTCCTAATCTTTCTGTTCAAGCGCCATCTAC	0.971 RPM ratio (pull-down/input)
GATGATTGTTCTCCCAGCTGATGAATTCGCGAGTTCGAGTAAACAAATTTTCCTAATCTTTCTGTTCAAGCGCCATCTAC	0.823 RPM ratio (pull-down/input)
GATGATTGTTCTCCCAGCTGATGAATTCATAGCGTCGAGTAAACAAATTTTCCTAATCTTTCTGTTCAAGCGCCATCTAC	1.02 RPM ratio (pull-down/input)
GATGATTGTTCTCCCAGCTGATGAATTCCTCCTCTCGAGTAAACAAATTTTCCTAATCTTTCTGTTCAAGCGCCATCTAC	0.88 RPM ratio (pull-down/input)
GATGATTGTTCTCCCAGCTGATGAATTTAGAGTGTCGAGTAAACAAATTTTCCTAATCTTTCTGTTCAAGCGCCATCTAC	0.972 RPM ratio (pull-down/input)
